# Measured values published in PubChem BioAssay (NCATS).
# This list was built around the results that the source calls inconclusive (neither active nor inactive); the mix of calls is not that of the screen. For some assays here: Potencies of inconclusive entries are left out as doubtful fits. The source made the active and inactive calls. Unless noted, calls come from the whole dose curve; as a rule, active = well fitted curve in either direction with a large enough effect (not every such curve was filed as active); inconclusive = small, poorly fitted or top-dose-only effect, or another doubt; inactive = flat fitted curve, though single readings scatter.
# Key:
# [1] = NFAT Signaling Pathway (AID 444); details: Jurkat NFAT-bla M1, carbachol, beta-lactamase ratio, 5 h; at 7.69 µM (top of the series) unless noted;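 note: carbachol stimulus at about its EC50 of 1 µM final; % is set by controls: 0 for no effect and ±100 for the full control effect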
# Procedure, shortened: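 Read-out: CCF4 FRET ratio (460 nm/530 nm) after 1 h RT dye loading, used for %activity and AC50 from titration series. Cells: Jurkat NFAT-β-lactamase/M1 line, treated with compound plus 1 uM carbachol for 5 h, 37 °C.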
# [2] = qHTS Assay for Identification of Small Molecule Agonists for Hypoxia Response Element Signaling Pathway (AID 914; active = well fitted activation curve with a large enough effect in the signal ratio, with a control signal flat, not every such curve was filed as active; inconclusive = small, poorly fitted or top-dose-only effect, or effect the other way, or a change in a side signal; the % refers to the signal ratio; note: top concentration of the series differs between compounds; % of control where 0% means no effect); details: ME-180 HRE-bla reporter, beta-lactamase ratio, CoCl2, 17 h; activation: active compounds read high
# Procedure, shortened: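 HRE-bla ME-180 cells with beta-lactamase reporter under hypoxia response element, compounds with EC50 CoCl2 for 17 hours at 37 C. CCF4 substrate, 460nm/530nm emission ratio gave %Activity; AC50 from titration series.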
# [3] = qHTS Assay for Lipid Storage Modulators (AID 1519; calls by dose curve; note: % is set by controls: 0 for no effect and ±100 for the full control effect); details: Drosophila S3 cells, BODIPY lipid droplet/cell ratio, laser cytometry, cells loaded with oleic acid; activity change, negative = inhibition: at 57.5 µM (top of the series) unless noted
# Procedure, shortened: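 Cells seeded at 5,000 per well were treated with compounds over a concentration series and loaded with oleic acid (400 uM, as added). Lipid droplet fluorescence (488 nm excitation, 500-530 nm channel) was read by laser-scanning cytometry and normalized to 20 uM Triacsin C.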
# [4] = Stat Signaling Pathway (AID 446); details: ME-180 (cervical carcinoma) SIE beta-lactamase reporter, IL-6 stimulated, 5 h; at 7.69 µM (top of the series) unless noted;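 note: ME-180 cervical cancer cells given 40 pM IL-6 alongside compound; SIE-controlled beta-lactamase reporter measured as 460/530 nm FRET emission ratio; top concentration of the series differs between compounds; % is set by controls: 0 for no effect and ±100 for the full control effect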
# Procedure, shortened: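 FRET read-out (405 nm excitation, 460/530 nm emission) of a beta-lactamase reporter under a STAT-inducible element in ME-180 cervical carcinoma cells. Cells with compound receive 40 pM IL-6 for 5 h. Values are normalised to AC90 stimulation and AC90 JAK-inhibitor controls.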
# [5] = molecular target: Cytochrome P450 2C9 (Homo sapiens) (UniProt P11712); assay: qHTS Assay for Inhibitors and Substrates of Cytochrome P450 2C9 (AID 883; active = well fitted curve in the direction sought with a large enough effect; inconclusive = small, poorly fitted or top-dose-only effect, or another doubt; inactive = no such curve, though single readings can be large; an effect the other way counts as inactive or inconclusive; note: potency is the fitted concentration of half-maximal effect; nearly all actives have a fitted effect of over 60% in size)
# Procedure, shortened: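 Inhibition of CYP2C9 is scored as loss of luminescence, with 57uM sulphaphenazole defining 100% inhibition. Substrate Luciferin-H is used at 100uM, equal to its KM; enzyme at 10nM in 25mM KPO4, 60 min at 37C with NADPH regeneration.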
# [6] = molecular target: Ubiquitin carboxyl-terminal hydrolase 1 (Homo sapiens) (UniProt O94782); assay: Inhibitors of USP1/UAF1: Pilot qHTS (AID 504865; active = well fitted curve in the direction sought with a large enough effect; inconclusive = small, poorly fitted or top-dose-only effect, or another doubt; inactive = no such curve, though single readings can be large; an effect the other way counts as inactive or inconclusive;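 note: rhodamine fluorescence freed from ubiquitin-rhodamine substrate followed over time; potency is the fitted concentration of half-maximal effect; nearly all actives have a fitted effect of over 35% in size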)
# Procedure, shortened: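 Kinetic fluorescence assay: 1nM USP1/UAF1, 15 min compound preincubation, then 150nM Ub-Rho; 480/540 nm.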
# [7] = molecular target: Cytochrome P450 3A4 (Homo sapiens) (UniProt P08684); assay: qHTS Assay for Activators of Cytochrome P450 3A4 (AID 885; active = well fitted curve in the direction sought with a large enough effect; inconclusive = small, poorly fitted or top-dose-only effect, or another doubt; inactive = no such curve, though single readings can be large; an effect the other way counts as inactive or inconclusive; note: potency is the fitted concentration of half-maximal effect; nearly all actives have a fitted effect of over 65% in size)
# Procedure, shortened: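 Luminescent readout of luciferin formed from 25 uM Luciferin-PPXE (KM level) by 20 nM CYP3A4 in 200 mM KPO4, with 60 min NADPH-driven reaction at room temperature after 10 min compound exposure. Ketoconazole (57 uM) defined 100% inhibition.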
# Tags give direction and shape of the fitted curve.
# Sequence of UniProt O94782 (O94782 whole entry, looked up): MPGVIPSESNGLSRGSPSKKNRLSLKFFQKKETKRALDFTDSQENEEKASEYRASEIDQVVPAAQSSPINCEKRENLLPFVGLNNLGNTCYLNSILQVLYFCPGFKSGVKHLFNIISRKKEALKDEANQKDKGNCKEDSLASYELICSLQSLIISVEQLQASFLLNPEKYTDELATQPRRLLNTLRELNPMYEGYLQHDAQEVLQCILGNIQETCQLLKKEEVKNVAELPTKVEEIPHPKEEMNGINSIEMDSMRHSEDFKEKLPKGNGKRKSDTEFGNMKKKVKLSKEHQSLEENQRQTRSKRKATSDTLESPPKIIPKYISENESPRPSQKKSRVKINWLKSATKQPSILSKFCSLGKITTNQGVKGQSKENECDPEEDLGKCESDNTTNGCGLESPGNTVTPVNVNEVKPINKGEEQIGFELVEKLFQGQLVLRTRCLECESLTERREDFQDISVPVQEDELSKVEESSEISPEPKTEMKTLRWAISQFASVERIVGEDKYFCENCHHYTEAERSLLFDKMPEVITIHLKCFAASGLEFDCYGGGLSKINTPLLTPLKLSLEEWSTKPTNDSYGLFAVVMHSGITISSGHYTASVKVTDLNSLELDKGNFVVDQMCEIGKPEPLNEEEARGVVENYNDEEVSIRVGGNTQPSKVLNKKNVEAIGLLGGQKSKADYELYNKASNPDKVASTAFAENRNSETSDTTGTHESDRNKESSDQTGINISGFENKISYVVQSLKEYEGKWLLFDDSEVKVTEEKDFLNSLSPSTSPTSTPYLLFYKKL
# Sequence of UniProt P08684 (P08684 whole entry, looked up): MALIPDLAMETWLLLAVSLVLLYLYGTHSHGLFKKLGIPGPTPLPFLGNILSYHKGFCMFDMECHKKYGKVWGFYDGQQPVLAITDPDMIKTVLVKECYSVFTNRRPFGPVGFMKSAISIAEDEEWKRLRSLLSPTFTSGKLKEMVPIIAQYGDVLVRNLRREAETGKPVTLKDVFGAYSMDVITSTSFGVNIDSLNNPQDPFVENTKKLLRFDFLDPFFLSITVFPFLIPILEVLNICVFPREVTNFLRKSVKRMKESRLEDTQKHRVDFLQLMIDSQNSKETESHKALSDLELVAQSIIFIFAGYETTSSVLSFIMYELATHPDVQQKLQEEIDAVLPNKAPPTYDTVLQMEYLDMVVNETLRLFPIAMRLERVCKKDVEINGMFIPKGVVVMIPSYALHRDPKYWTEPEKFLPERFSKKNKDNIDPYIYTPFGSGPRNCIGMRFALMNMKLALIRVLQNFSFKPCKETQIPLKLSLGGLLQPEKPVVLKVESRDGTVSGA
# Sequence of UniProt P11712 (P11712 whole entry, looked up): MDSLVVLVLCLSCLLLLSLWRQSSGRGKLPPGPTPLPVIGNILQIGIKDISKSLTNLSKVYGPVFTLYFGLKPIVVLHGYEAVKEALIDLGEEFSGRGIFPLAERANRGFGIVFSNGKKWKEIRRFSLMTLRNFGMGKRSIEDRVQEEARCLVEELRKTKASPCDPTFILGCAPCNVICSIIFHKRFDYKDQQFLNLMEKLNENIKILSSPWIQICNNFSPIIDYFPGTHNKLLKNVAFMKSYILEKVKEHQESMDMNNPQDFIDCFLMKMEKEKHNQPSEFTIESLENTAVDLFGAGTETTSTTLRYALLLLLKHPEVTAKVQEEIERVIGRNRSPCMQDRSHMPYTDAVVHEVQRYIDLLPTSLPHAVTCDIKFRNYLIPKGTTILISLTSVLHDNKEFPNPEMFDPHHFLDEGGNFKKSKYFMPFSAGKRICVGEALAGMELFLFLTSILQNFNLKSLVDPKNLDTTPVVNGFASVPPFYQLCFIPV
smiles,measurement,setting,value
N#Cc1cccc(NC(=O)N2CC[C@@]3(CCCN(C(=O)c4cccc(F)c4)C3)C2)c1,"activity change, negative = inhibition",[1],inconclusive: 46.6% [activator]
same,activation,[2],inconclusive: -37.8%
same,"activity change, negative = inhibition",[3],inconclusive: 6.42%
CN(C)c1ccc(-c2cc(-n3ccnc3)ncn2)cc1,"activity, negative = inhibition",[4],inactive: 15.9%
same,Potency,[5],"inconclusive [inhibitor, partial curve]"
same,Potency,[3],inactive
same,Potency,[6],"inconclusive [inhibitor, partial curve]"
COc1ccc(C(=O)N2CCC3(CCN(CC(C)C)CC3)CC2)cc1,"activity change, negative = inhibition",[1],inconclusive: -34.3% [inhibitor]
same,activation,[2],inconclusive: 382%
same,Potency,[3],inactive
Nc1ccn([C@@H]2CC[C@H](CO)O2)c(=O)n1,"activity, negative = inhibition",[4],inactive: -8.23% [at 17.2 µM]
same,Potency,[3],inactive
same,Potency,[6],"inconclusive [inhibitor, partial curve, poor fit]"
c1cncc(-c2nc(NCCN3CCOCC3)c3ccccc3n2)c1,"activity, negative = inhibition",[4],inconclusive: 5.77% [inhibitor]
same,"activity change, negative = inhibition",[3],inconclusive: 5.47%
same,Potency,[6],"inconclusive [inhibitor, partial curve, poor fit]"
CC(=O)N1CCC2(CC1)CCN(C(c1ccccc1)c1ccccc1)CC2,"activity change, negative = inhibition",[1],inconclusive: -57.9% [inhibitor]
same,Potency,[7],active: 25.1 µM
same,activation,[2],inconclusive: 30.8%
same,"activity change, negative = inhibition",[3],inconclusive: 8.46%
O=C(c1ccco1)N1CCC2(CCCN(Cc3ccccc3)C2)CC1,"activity change, negative = inhibition",[1],inconclusive: -68.7% [inhibitor]
same,activation,[2],inactive: 3.78%
same,"activity change, negative = inhibition",[3],inconclusive: 4.11%
